According to patent US10800791B2, “Triazole ACC inhibitors and uses thereof” (Gilead Apollo, LLC, priority 2015, dated 2020):
Values after ≈ are worked out from the molar mass of the structure shown. Where two headings read alike, the source gives them in different places.

What was measured:
[1] = test system: Septoria tritici (St); test: Growth inhibition assay of fungal pathogens, St; format: cell-based; details: Zymoseptoria tritici, 48 h, Septoria tritici; growth inhibition at 48 hours vs 2% DMSO control; read-out: Concentration at 90% Inhibition St
Protocol: (§1) Compounds of the present invention were evaluated in a growth inhibition assay to determine the ability to control the growth of fungal pathogens, such as Botrtyis cinerea (Bc), Collectotrichum graminicola (Cg), Diplodia maydis (Dm), Fusarium moniliforme (Fm), Fusarium virguliforme (Fv), Phytophthora capsici (Pc), Rhizoctonia solani (Rs), and Septoria tritici (St).
(§2) Compounds to be tested were dissolved in DMSO at 2.5 mg/ml to produce compound stock solutions (“stocks”). Stocks were diluted with DMSO by a five-fold dilution in a 96-well stock plate, and two sets of final concentrations of 50, 10, and 2 ppm or 2, 0.4, and 0.08 ppm were obtained in vitro. A set of positive controls was also prepared, with various concentrations of Soraphen (2, 0.4, and 0.08 ppm), Metalaxyl (1.1, 0.22, and 0.04 ppm), and Metconazole (2, 0.4, and 0.08 ppm or 0.2, 0.04, and 0.008 ppm) after the five-fold dilutions. Negative controls on each plate included 2% DMSO, water, and a blank (media+2% DMSO).
(§3) Fungal spores were isolated from previously sub-cultured plates of Botrtyis cinerea (Bc), Collectotrichum graminicola (Cg), Diplodia maydis (Dm), Fusarium moniliforme (Fm), Fusarium virguliforme (Fv), Phytophthora capsici (Pc), and Septoria tritici (St). The isolated spores were diluted to individual concentrations with a 17% V8 liquid media. For Rhizoctonia solani (Rs) and Pythium irregulare, 1.5 mm mycelial plugs were used in place of spores and/4 Potato Dextrose Broth (PDB) was used for dilution. The spore concentrations and plug sizes were based on growth curves generated at 48 hours for each pathogen.
(§4) In a second 96-well plate, the spores or mycelial plugs, media, diluted compound solutions, and controls were combined. Once the compound was added, a true final concentration of compound in each well was measured by an OD600 reading, which adjusted for any compound precipitation that might have occurred in the well. Plate readings were repeated at both 24 and 48 hours. The blank negative control was used as a background subtraction. Additional visual ratings were performed at both 24 and 48 hours for checking on precipitation and confirming efficacy. Visual and OD600 ratings of the compounds at 48 hours were compared to the 2% DMSO negative control, and the percent of pathogen growth inhibition was determined based on those values.

[2] = test system: Diplodia maydis (Dm); test: Growth inhibition assay of fungal pathogens, Dm; format: cell-based; details: Stenocarpella maydis, 48 h, Diplodia maydis; growth inhibition at 48 hours vs 2% DMSO control; read-out: Concentration at 90% Inhibition Dm
Protocol: as §1, §2, §3, §4

[3] = test system: Fusarium virguliforme (Fv); test: Growth inhibition assay of fungal pathogens, Fv; format: cell-based; details: 48 h, growth inhibition at 48 hours vs 2% DMSO control, read-out: Concentration at 90% Inhibition Fv
Protocol: as §1, §2, §3, §4

[4] = test system: Phytophthora capsici (Pc); test: Growth inhibition assay of fungal pathogens, Pc; format: cell-based; details: 48 h, growth inhibition at 48 hours vs 2% DMSO control, read-out: Concentration at 90% Inhibition Pc
Protocol: as §1, §2, §3, §4

[5] = target: fungal (fACC2) (UniProt Q00955); details: read-out: fACC2 (in vitro ACC2 Inhibition Assay, IC50), ADP-Glo, 5 nM ACC2, 20 μM ATP, 20 μM acetyl-CoA
[6] = test system: C. parapsilosis; test: Antifungal Activity Assay (broth microtiter MIC), C. parapsilosis; format: cell-based, Candida parapsilosis; details: Lodderomyces parapsilosis, ATCC22019, 48 h, Table 3b (additional results); ATCC 22019; 3 replicates; MIC recorded at 48 h; read-out: MIC, C. parapsilosis ATCC 22019
Protocol: (§5) Compounds of the present invention were evaluated in an Antifungal Activity Assay. An exemplary procedure for the assay, which measures the susceptibility of various Candida species to antifungal compounds, follows. Compounds to be tested (including fluconazole and amphotericin B) were dissolved in DMSO to obtain a solution having a concentration of 1 mg/mL. These stock solutions were sterile filtered using a 0.22 um nylon syringe filter, then diluted in sterile water to achieve a final concentration of 128 μg/mL.
(§6) All species were grown from frozen stock by directly plating on to freshly prepared Sabouraud Dextrose agar (BD, Difco) and incubated overnight in ambient air at 35° C. for 24 h. A direct suspension was prepared in RPMI 1640+MOPS (Lonza, Biowhittaker) by taking individual colonies from the overnight cultures using sterile swabs soaked in sterile saline. The concentration of the suspension was determined using pre-determined standard curves. These suspensions were then diluted down to 5×10^3 CFU/mL to achieve a final concentration of 2.5×10^3 CFU/mL once added to the microtiter plate as per CLSI guidelines (M27-A3, Vol. 28 No. 14).
(§7) Broth microtiter MIC challenge plates were prepared following CLSI guidelines (M27-A3, Vol. 28 No. 14). The original CLSI guidelines focused on reading Candida MICs after 48 h of incubation. As reading after only 24 h offers a clear advantage of patient care, QC limits are being established for all drugs at 24 h. That being said there are no known interpretive breakpoints for amphotericin B at 24 h and the current fluconazole interpretive breakpoints are based on a 48 h reading. The MICs for the test compounds were recorded at 48 h. All MIC determinations were achieved by visually comparing the growth found in the antibiotic challenged wells to that of the growth control.

[7] = test system: Fusarium moniliforme (Fm); test: Growth inhibition assay of fungal pathogens, Fm; format: cell-based; details: Fusarium verticillioides, 48 h, Fusarium moniliforme; growth inhibition at 48 hours vs 2% DMSO control; read-out: Concentration at 90% Inhibition Fm
Protocol: as §1, §2, §3, §4

[8] = test system: C. krusei; test: Antifungal Activity Assay (broth microtiter MIC), C. krusei; format: cell-based, Candida krusei; details: Pichia kudriavzevii, ATCC6258, 48 h, Table 3b (additional results); ATCC 6258; 3 replicates; MIC recorded at 48 h; read-out: MIC, C. krusei ATCC 6258
Protocol: as §5, §6, §7

[9] = test system: Rhizoctonia solani (Rs); test: Growth inhibition assay of fungal pathogens, Rs; format: cell-based; details: 48 h, mycelial plugs, growth inhibition at 48 hours vs 2% DMSO control, read-out: Concentration at 90% Inhibition Rs
Protocol: as §1, §2
as §3, with “The spore concentrations and plug sizes were based on growth curves generated at 48 hours for each pathogen.” left out
as §4, with “The blank negative control was used as a background subtraction. Additional visual ratings were performed at both 24 and 48 hours for checking on precipitation and confirming efficacy.” left out

[10] = target: human (hACC2) (Homo sapiens, UniProt O00763); test: In vitro ACC inhibition assay (ADP-Glo), hACC2; format: biochemical; details: 5 nM ACC2, 20 μM ATP, 20 μM acetyl-CoA
Protocol: The detailed procedure is as follows. […] 10 μL ADP glo reagent was added. […] 20 μL kinase detection reagent was added.

[11] = test system: C. albicans; test: Antifungal Activity Assay (broth microtiter MIC), C. albicans; format: cell-based; details: Candida albicans, ATCC90028, 48 h, Table 3b (additional results); ATCC 90028; 3 replicates; MIC recorded at 48 h; read-out: MIC, C. albicans ATCC 90028
Protocol: as §5, §6, §7

[12] = test system: Botrtyis cinerea (Bc); test: Growth inhibition assay of fungal pathogens, Bc; format: cell-based; details: 48 h, Botrtyis cinerea; growth inhibition at 48 hours vs 2% DMSO control; read-out: Concentration at 90% Inhibition Bc
Protocol: as §1, §2, §3, §4

[13] = test system: Collectotrichum graminicola (Cg); test: Growth inhibition assay of fungal pathogens, Cg; format: cell-based; details: 48 h, Collectotrichum graminicola; growth inhibition at 48 hours vs 2% DMSO control; read-out: Concentration at 90% Inhibition Cg
Protocol: as §1, §2, §3, §4

UniProt Q00955, sequence (Q00955 whole entry): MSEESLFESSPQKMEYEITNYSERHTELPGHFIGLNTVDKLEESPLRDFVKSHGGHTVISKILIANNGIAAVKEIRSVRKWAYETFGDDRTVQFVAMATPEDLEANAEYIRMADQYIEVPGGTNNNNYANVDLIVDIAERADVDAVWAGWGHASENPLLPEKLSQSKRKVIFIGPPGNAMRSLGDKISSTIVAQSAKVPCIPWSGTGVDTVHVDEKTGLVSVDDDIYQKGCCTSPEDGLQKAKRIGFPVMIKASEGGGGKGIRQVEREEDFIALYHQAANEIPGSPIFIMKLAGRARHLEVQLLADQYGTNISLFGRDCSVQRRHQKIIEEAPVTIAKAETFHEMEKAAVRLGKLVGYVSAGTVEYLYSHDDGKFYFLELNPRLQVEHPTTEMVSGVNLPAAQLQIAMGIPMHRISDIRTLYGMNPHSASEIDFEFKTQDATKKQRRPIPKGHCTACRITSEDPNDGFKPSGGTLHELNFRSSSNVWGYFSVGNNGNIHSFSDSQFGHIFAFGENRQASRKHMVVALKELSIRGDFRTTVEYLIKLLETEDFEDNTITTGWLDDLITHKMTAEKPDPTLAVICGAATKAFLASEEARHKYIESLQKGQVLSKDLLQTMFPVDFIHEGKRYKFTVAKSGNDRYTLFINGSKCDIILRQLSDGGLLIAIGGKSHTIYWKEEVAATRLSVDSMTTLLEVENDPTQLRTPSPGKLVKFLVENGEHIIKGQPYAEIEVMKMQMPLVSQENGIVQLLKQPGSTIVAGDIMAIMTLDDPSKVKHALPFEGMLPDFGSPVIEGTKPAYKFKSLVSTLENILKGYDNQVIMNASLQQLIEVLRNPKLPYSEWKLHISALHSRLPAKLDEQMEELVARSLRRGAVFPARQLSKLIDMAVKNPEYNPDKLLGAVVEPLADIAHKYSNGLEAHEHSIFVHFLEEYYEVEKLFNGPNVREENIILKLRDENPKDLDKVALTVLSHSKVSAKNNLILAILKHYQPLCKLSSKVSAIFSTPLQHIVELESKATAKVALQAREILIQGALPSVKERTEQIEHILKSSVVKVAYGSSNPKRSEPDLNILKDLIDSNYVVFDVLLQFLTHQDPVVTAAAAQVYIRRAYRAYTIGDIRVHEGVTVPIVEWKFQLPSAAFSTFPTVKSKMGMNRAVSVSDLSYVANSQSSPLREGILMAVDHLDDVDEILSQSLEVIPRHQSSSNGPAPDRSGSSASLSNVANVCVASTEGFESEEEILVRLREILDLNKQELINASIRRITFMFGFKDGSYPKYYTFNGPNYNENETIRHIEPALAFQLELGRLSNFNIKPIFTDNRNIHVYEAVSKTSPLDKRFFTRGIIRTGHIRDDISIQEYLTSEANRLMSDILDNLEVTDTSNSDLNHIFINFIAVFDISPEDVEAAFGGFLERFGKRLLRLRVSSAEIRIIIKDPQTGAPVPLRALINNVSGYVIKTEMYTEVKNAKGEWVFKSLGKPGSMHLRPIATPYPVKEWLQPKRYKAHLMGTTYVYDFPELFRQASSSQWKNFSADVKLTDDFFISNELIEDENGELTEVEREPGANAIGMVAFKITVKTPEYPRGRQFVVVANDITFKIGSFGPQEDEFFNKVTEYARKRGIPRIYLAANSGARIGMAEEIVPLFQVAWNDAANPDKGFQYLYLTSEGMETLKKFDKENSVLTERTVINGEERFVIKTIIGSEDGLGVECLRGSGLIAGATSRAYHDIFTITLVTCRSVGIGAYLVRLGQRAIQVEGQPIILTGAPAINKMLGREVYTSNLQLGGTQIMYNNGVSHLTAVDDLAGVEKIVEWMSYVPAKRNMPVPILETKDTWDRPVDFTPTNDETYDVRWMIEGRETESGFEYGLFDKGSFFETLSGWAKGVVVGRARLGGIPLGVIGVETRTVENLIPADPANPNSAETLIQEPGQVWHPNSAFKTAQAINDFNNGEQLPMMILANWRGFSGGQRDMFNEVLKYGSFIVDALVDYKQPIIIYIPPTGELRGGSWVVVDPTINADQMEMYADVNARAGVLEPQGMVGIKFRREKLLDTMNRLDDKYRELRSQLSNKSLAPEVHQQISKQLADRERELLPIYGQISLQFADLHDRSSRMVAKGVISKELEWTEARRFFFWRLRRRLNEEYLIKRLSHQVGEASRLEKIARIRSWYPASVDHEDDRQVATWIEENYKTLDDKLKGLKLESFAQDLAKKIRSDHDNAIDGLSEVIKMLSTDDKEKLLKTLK
UniProt O00763, sequence (O00763 whole entry): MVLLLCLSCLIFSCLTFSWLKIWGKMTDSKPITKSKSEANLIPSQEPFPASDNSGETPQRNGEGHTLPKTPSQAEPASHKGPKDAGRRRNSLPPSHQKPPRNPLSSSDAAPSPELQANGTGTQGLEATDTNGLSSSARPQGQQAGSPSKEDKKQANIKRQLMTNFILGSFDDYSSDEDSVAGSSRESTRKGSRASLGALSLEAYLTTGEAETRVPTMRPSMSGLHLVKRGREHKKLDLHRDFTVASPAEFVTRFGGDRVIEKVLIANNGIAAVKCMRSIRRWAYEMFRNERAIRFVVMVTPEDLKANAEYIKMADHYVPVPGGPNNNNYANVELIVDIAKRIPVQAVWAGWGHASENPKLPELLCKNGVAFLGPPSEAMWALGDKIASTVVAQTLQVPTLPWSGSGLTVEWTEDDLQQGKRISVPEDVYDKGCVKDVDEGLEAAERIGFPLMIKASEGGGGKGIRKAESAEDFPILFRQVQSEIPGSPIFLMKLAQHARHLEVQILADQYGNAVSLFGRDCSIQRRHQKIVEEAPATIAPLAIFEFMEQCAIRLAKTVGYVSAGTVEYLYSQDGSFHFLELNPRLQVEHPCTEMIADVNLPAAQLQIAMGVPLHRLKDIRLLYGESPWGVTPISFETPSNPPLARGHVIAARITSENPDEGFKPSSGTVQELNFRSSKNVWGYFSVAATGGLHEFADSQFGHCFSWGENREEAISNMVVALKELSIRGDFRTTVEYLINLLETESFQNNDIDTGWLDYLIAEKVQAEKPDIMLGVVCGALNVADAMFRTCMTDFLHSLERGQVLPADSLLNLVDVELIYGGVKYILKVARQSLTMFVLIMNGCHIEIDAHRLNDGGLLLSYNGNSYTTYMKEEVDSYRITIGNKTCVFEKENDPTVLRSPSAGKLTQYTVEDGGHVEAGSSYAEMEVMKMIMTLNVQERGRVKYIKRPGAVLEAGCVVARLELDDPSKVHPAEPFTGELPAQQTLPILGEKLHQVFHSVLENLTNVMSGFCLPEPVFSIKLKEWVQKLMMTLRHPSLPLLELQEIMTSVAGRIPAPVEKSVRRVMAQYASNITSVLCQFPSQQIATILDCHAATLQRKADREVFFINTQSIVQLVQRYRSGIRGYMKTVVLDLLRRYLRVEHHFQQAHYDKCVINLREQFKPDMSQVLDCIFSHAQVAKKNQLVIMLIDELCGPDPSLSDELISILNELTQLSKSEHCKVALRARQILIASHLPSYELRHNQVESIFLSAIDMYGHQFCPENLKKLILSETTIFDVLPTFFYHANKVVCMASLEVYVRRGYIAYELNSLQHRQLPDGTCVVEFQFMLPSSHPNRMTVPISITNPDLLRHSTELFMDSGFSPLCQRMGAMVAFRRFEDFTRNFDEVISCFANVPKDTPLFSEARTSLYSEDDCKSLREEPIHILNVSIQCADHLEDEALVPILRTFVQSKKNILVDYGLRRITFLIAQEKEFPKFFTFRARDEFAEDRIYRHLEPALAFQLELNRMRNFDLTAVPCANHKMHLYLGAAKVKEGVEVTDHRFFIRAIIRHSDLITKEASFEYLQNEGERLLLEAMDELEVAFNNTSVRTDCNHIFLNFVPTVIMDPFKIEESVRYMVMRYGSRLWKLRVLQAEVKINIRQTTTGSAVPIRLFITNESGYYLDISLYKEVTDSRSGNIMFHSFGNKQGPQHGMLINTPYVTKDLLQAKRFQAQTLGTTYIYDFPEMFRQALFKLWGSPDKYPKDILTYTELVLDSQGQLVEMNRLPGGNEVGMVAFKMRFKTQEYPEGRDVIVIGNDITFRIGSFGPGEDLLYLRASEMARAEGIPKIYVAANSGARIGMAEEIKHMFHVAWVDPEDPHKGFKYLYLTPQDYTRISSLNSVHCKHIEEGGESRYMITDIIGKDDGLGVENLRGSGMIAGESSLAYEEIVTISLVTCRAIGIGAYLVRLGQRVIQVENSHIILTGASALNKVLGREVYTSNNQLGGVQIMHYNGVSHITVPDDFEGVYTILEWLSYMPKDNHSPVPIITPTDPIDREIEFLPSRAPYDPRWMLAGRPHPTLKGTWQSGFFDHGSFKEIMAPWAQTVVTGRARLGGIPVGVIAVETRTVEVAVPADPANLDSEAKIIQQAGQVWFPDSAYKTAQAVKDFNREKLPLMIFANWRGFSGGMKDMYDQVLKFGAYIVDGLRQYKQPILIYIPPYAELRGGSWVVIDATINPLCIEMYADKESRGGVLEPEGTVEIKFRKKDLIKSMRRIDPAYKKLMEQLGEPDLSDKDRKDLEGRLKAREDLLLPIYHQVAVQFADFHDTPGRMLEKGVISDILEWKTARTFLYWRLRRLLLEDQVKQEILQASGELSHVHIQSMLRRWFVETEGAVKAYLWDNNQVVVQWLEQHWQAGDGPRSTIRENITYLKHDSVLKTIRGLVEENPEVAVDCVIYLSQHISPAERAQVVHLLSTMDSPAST

SMILES | IC90 [1] | IC90 [2] | IC90 [3] | IC90 [4] | IC50 ([5]; Table 2a) | IC50 ([5]; Table 2b, additional results) | MIC [6] | IC90 [7] | MIC [8] | IC90 [9] | IC50 ([10]; Table 2a) | IC50 ([10]; Table 2b, additional results) | MIC [11] | IC90 [12] | IC90 [13]
COc1ccc(F)cc1[C@@H](O)Cn1c(=O)n(C(C)(C)C(=O)N2CCCC2)c(=O)c2c(C)c(-n3nccn3)sc21 [Compound I-177] | > 50 µg/mL | 10 µg/mL (≈ 18 µM) | 2 µg/mL (≈ 3.59 µM) | > 50 µg/mL | 0.4 to 1 nM | 0.3 to 1 nM | 1.01 to 2 µg/mL (≈ 1.81 to 3.59 µM) | 0.4 µg/mL (≈ 0.719 µM) | 1.01 to 2 µg/mL (≈ 1.81 to 3.59 µM) | 0.08 µg/mL (≈ 0.144 µM) | 10 to 40 nM | 10 to 40 nM | 1.01 to 2 µg/mL (≈ 1.81 to 3.59 µM) | 2 µg/mL (≈ 3.59 µM) | 2 µg/mL (≈ 3.59 µM)
COc1ccc(F)cc1[C@H](Cn1c(=O)n(C(C)(C)C(=O)N2CCCC2)c(=O)c2c(C)c(-n3nccn3)sc21)OCCC#N [Compound I-181] | > 50 µg/mL | 2 µg/mL (≈ 3.28 µM) | 2 µg/mL (≈ 3.28 µM) | > 50 µg/mL |  | 1 to 5 nM | 1.01 to 2 µg/mL (≈ 1.66 to 3.28 µM) | 2 µg/mL (≈ 3.28 µM) | 2.01 to 4 µg/mL (≈ 3.3 to 6.56 µM) | 2 µg/mL (≈ 3.28 µM) |  | 5 to 10 nM | 2.01 to 4 µg/mL (≈ 3.3 to 6.56 µM) | 2 µg/mL (≈ 3.28 µM) | 2 µg/mL (≈ 3.28 µM)
